# Experimental data taken from PMC4336329 (PLoS ONE, 2015).
# Among all 310,000 compounds or so, about 14,000 (4.5%) showed an effect of 50% or more. Effects have a minus sign here. The list shows a part of the results.
# Target: human ether-à-go-go-related gene (hERG) potassium channel (human, UniProt Q12809)
# Assay: primary screen, population patch clamp on CHO cells stably expressing hERG
# 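Further: peak tail current of the secondary pulse compared with the same well before compound.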
# Chain of human ether-à-go-go-related gene (hERG) potassium channel (Q12809 whole entry, looked up): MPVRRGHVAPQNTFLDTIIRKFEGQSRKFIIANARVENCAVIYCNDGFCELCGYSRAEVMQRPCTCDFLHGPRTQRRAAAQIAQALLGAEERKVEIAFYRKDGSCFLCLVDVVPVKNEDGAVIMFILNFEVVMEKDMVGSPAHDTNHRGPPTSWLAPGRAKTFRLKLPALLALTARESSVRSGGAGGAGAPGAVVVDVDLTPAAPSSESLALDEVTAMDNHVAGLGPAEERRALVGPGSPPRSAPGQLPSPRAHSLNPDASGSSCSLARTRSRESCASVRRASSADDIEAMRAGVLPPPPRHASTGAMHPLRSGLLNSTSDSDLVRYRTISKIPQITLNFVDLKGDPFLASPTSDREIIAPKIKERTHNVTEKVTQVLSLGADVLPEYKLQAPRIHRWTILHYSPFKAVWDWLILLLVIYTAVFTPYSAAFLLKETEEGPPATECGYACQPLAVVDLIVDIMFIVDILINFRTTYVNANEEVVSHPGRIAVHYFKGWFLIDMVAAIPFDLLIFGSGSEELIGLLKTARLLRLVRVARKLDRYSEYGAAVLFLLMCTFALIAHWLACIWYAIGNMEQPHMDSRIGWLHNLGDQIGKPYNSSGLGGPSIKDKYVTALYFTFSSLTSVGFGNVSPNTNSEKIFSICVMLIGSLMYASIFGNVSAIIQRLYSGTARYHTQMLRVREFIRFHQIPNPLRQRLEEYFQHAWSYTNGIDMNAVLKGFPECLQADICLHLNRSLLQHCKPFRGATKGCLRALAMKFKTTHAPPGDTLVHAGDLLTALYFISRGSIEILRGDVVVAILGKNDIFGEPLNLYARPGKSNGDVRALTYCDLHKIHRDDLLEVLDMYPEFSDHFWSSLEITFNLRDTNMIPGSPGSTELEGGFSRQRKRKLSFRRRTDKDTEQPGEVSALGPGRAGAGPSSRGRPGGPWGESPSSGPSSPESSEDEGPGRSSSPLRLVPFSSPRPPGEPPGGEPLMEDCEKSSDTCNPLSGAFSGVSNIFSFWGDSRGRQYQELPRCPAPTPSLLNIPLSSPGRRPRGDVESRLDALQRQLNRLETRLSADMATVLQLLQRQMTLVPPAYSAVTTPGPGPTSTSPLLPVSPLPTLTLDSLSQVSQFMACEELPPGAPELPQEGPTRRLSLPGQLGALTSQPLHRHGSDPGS
row,SMILES,"hERG current change (%, negative = inhibition) at 10uM"
1,O=C(CSc1nnc(-c2ccccc2F)n1C1CC1)NCc1ccco1,-12.8%
2,CCN1CCN(S(=O)(=O)c2c[nH]c(C(=O)OC)c2)CC1,7.98%
3,COc1ccc(/C=C/C(=O)OC(C)CN2CCCCC2)cc1.Cl (stereo not shown),-26.2%
4,Cc1sc2ncn(CC(=O)N3CCC(C(N)=O)CC3)c(=O)c2c1S(=O)(=O)N1CCOCC1,9.52%
5,O=C(Nc1ccccc1)C1CC2CCC1C2 (stereo not shown),12.8%
6,Cl.N=C1c2ccccc2CN1CC(=O)c1ccccc1,-25.1%
7,CS(=O)(=O)N1CCC(C(=O)NCc2ccncc2)CC1,5.2%
8,CC(OC(=O)CCNS(=O)(=O)c1cccs1)C(=O)Nc1ccc(S(N)(=O)=O)cc1 (stereo not shown),0.281%
9,CCN(CC)C(=O)c1[nH]cnc1C(=O)N[C@@H](C)c1ccccc1,20.2%
10,CCN(CC1CCCO1)C(=O)C1CCN(C2CCN(Cc3ccccc3C)CC2)CC1 (stereo not shown),1.77%
11,Cc1ccc(Cn2nnc3c(=O)n(CC(=O)NCc4ccc5c(c4)OCO5)cnc32)cc1,-12.6%
12,CC(C)OCCCNC(=O)COc1ccc2oc3c(c2c1)CCCC3,-4.97%
13,CCN1C(=O)C(=O)N(CC(=O)c2cc(C)n(C3CC3)c2C)C1=O,-3.71%
14,COc1ccc(NC(=S)NC(NC(C)=O)C(Cl)(Cl)Cl)c([N+](=O)[O-])c1 (stereo not shown),0.178%
15,NS(=O)(=O)c1ccc(CCNC(=O)C2CCN(c3ncnc4c3nc3n4CCCCC3)CC2)cc1,9.07%
16,O=C(c1cc(Br)c(Br)s1)N1CCN(c2ccccn2)CC1,-14.2%
17,Cc1c(NCc2ccccc2O)c(=O)n(-c2ccccc2)n1C,-4.34%
18,Cc1[nH]c(=O)[nH]c(=O)c1Sc1ccccc1[N+](=O)[O-],20.1%
19,CCCCCCNCC(=O)N1CCC(Cc2ccccc2)CC1,-71.7%
20,Cc1ccc2nsnc2c1NC(=O)c1ccc(-c2cc(Cl)ccc2Cl)o1,11.7%
21,O=c1nc2ccc(Cl)cn2c2ccc(S(=O)(=O)N3CCOCC3)cc12,-6.92%
22,CCCC(C)c1nnc(NC(=O)CS(=O)(=O)Cc2ccccc2)s1 (stereo not shown),2.52%
23,O=C(NCCCN1CCCC1=O)Nc1ccccc1F,18.7%
24,O=C(Nc1cccc(N2C(=O)C3C4C=CC(C4)C3C2=O)c1)c1cccs1 (stereo not shown),23.2%
25,COCCn1c(SCC(=O)Nc2cccc(OC)c2)nnc1-c1ccccc1,-17.4%
